B1: Caulobacter ParB omega fusion; a variant is named by its letters at X, in order, B8GW30 (parent)
chain: MESVVVGEPGMSEGRRGLGRGLSALLGEVDAAPAQAPGEQLGGSREAPIEILQRNPDQPRRTFREEDLEDLSNSIREKGVLQPILVRPSPDTAGEYQIVAGERAWRAAQRAGLKTVPIMVRELDDLAVLEIGIIENVQRADLNVLEEALSYKVLMEKFERTQENIAQTIGKSXSHVANXMRLLXLPDEVQSYLVSGELTAXHARAIAAAADPVALAKQIIEGGLSVRETEALARKAPNLSAGKSKGGRPPRVKDTDTQALESDLSSVLGLDVSIDHRGSTGTLTITYATLEQLDDLCNRLTRGI

Over roughly 81,000 sequences, “one-hybrid fitness for binding parS DNA” has its median near -0.17; the highest 2% begin near 0.51. The list shows a part of the results.

The variants in this experiment derive from B1. As to the kind of experiment: one-hybrid fitness for binding parS DNA (scaled: cognate 1, non-cognate 0); higher = stronger binding. The following applies: with parS DNA site. The method in brief: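 Caulobacter ParB libraries with four specificity codons randomised were screened by bacterial one-hybrid selection in the E. coli USO strain, using a HIS3 reporter whose site lies 19 bp from the promoter. Selection ran for 48 hours at 37°C on M9 lacking histidine, with 0.1 mM IPTG and 5 mM 3-AT. Plasmids were Illumina-sequenced before and after selection, three replicate libraries were pooled, and variants with under 10 reads were dropped. Fitness is the log change in each variant's read ratio to wild type, rescaled against the cognate and non-cognate sites.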
On to GNYY, for which the “one-hybrid fitness for binding parS DNA” value is at most 0.2. To WNSI belongs at most 0.2; to RNIH, at most 0.2; to MWYS, at most 0.2. Under AETN stands at most 0.2; under LQIR, at most 0.2. To GLWL belongs at most 0.2; to VTNE, at most 0.2. GTKC: the “one-hybrid fitness for binding parS DNA” value was at most 0.2. Under VSPY stands at most 0.2.

AHSW: the “one-hybrid fitness for binding parS DNA” value is at most 0.2. To RTDN belongs 0.404. With TLHQ, the “one-hybrid fitness for binding parS DNA” value was at most 0.2.

Take CTFS: the “one-hybrid fitness for binding parS DNA” value was at most 0.2. To TSEW belongs at most 0.2; to WGET, at most 0.2.

Turning to RSFH, the “one-hybrid fitness for binding parS DNA” value was at most 0.2. Consider MEIG, for which the “one-hybrid fitness for binding parS DNA” value was at most 0.2. To EIYF belongs at most 0.2. In the case of DLCT, the “one-hybrid fitness for binding parS DNA” value was at most 0.2. To PMTV belongs at most 0.2. Under RAAP stands at most 0.2. Under QTIP stands at most 0.2. For the variant SRNM, the “one-hybrid fitness for binding parS DNA” value is at most 0.2. As for GYHT, the “one-hybrid fitness for binding parS DNA” value was at most 0.2. Under QNFL stands at most 0.2; under MSNC, at most 0.2. To VNGS belongs at most 0.2. As for RNAE, the “one-hybrid fitness for binding parS DNA” value is at most 0.2. Under NITI stands at most 0.2; under SRRT, at most 0.2; under ENND, at most 0.2. Under DNQM stands at most 0.2; under PGRA, at most 0.2. Under ARDE stands at most 0.2; under VVHL, at most 0.2.

Regarding GPNH, the “one-hybrid fitness for binding parS DNA” value is at most 0.2. To VAGL belongs at most 0.2; to PPVT, at most 0.2; to RCFH, at most 0.2. Under NYKT stands at most 0.2; under GQHI, at most 0.2; under QPSV, at most 0.2.

Consider ENTK, for which the “one-hybrid fitness for binding parS DNA” value is at most 0.2. Under MLMY stands at most 0.2. With KWMS, the “one-hybrid fitness for binding parS DNA” value was at most 0.2. To AYMK belongs at most 0.2.

For the variant RPDT, the “one-hybrid fitness for binding parS DNA” value is at most 0.2. Under PHQI stands at most 0.2; under LASL, at most 0.2; under RMQY, 0.546. Under DPCS stands at most 0.2. Under SQNE stands at most 0.2.

Take NHSN: the “one-hybrid fitness for binding parS DNA” value is at most 0.2. To EHMR belongs at most 0.2; to CPSG, at most 0.2; to GPNW, at most 0.2. Take ALLW: the “one-hybrid fitness for binding parS DNA” value was at most 0.2. To FCIC belongs at most 0.2; to AIDS, at most 0.2; to WFHG, at most 0.2. Under AVFN stands at most 0.2; under KFPT, at most 0.2.

With QIIA, the “one-hybrid fitness for binding parS DNA” value is at most 0.2.

Regarding KRGY, the “one-hybrid fitness for binding parS DNA” value was at most 0.2. To NKKC belongs at most 0.2; to ASIN, at most 0.2; to QQNW, at most 0.2. To LPNY belongs at most 0.2; to HYRN, at most 0.2.

With MMPS, the “one-hybrid fitness for binding parS DNA” value is at most 0.2.

Consider ANPL, for which the “one-hybrid fitness for binding parS DNA” value is at most 0.2. To MALM belongs at most 0.2; to TYHY, at most 0.2. To GSLR belongs at most 0.2; to IQLW, at most 0.2.

As for TIHA, the “one-hybrid fitness for binding parS DNA” value is at most 0.2. As to RTEK, the “one-hybrid fitness for binding parS DNA” value was at most 0.2. Consider RFAF, for which the “one-hybrid fitness for binding parS DNA” value is at most 0.2. To VISC belongs at most 0.2. Turning to IKGT, the “one-hybrid fitness for binding parS DNA” value was at most 0.2. Under LAWR stands at most 0.2; under DPER, at most 0.2; under GVLF, at most 0.2. On to EEAS, for which the “one-hybrid fitness for binding parS DNA” value is at most 0.2. Under AQEG stands at most 0.2.

QGIY: the “one-hybrid fitness for binding parS DNA” value is at most 0.2. Under PSET stands at most 0.2; under NEDC, at most 0.2. Under KREV stands at most 0.2. To YCHR belongs at most 0.2; to IDNF, at most 0.2. NWSR: the “one-hybrid fitness for binding parS DNA” value is at most 0.2. To TTSN belongs at most 0.2; to PLCD, at most 0.2. To MQNE belongs at most 0.2; to RRDS, 0.743; to ETSV, at most 0.2. Under KYCG stands at most 0.2; under PLII, at most 0.2; under APAA, at most 0.2.

As to QKVA, the “one-hybrid fitness for binding parS DNA” value is at most 0.2. Under KVGM stands at most 0.2.

Consider NFDN, for which the “one-hybrid fitness for binding parS DNA” value is at most 0.2. To WACP belongs at most 0.2; to PPLK, at most 0.2. Under SFGC stands at most 0.2; under SCSC, at most 0.2; under PSFF, at most 0.2. Under HMTN stands at most 0.2; under ELPC, at most 0.2. Regarding RIYH, the “one-hybrid fitness for binding parS DNA” value is at most 0.2. Under MNTM stands at most 0.2. To CTDF belongs at most 0.2; to PIKV, at most 0.2; to RADD, at most 0.2. For the variant YSEV, the “one-hybrid fitness for binding parS DNA” value is at most 0.2. For the variant RYHY, the “one-hybrid fitness for binding parS DNA” value was 0.423. In the case of LQWG, the “one-hybrid fitness for binding parS DNA” value was at most 0.2. To KPKS belongs at most 0.2. To KSIH belongs at most 0.2. To ARQV belongs at most 0.2; to RNCS, 0.83; to PSAH, at most 0.2. Consider QWDT, for which the “one-hybrid fitness for binding parS DNA” value is at most 0.2. Under CNKV stands at most 0.2. To SGRC belongs at most 0.2; to SPPQ, at most 0.2.

For the variant RLPV, the “one-hybrid fitness for binding parS DNA” value was at most 0.2. Under PNFF stands at most 0.2. Under AMEY stands at most 0.2; under YCLG, at most 0.2; under SKTG, at most 0.2.

Turning to NWHR, the “one-hybrid fitness for binding parS DNA” value was at most 0.2. Under GAKE stands at most 0.2; under TELP, at most 0.2.

Turning to EINT, the “one-hybrid fitness for binding parS DNA” value is at most 0.2.

Consider QPKM, for which the “one-hybrid fitness for binding parS DNA” value is at most 0.2. Under TSLC stands at most 0.2; under RHYM, 0.325; under YLYT, at most 0.2. For TRHI, the “one-hybrid fitness for binding parS DNA” value was at most 0.2.

Regarding QNAG, the “one-hybrid fitness for binding parS DNA” value is at most 0.2. To PRCR belongs at most 0.2; to RMQD, 0.318; to KIRT, at most 0.2. With LDHS, the “one-hybrid fitness for binding parS DNA” value is at most 0.2. To QQCI belongs at most 0.2. Under QSLQ stands at most 0.2; under RKPG, 0.552. Under MMHF stands at most 0.2; under DTVD, at most 0.2; under LDYM, at most 0.2. Consider QYID, for which the “one-hybrid fitness for binding parS DNA” value was at most 0.2. Under HWRR stands at most 0.2; under SGGT, at most 0.2; under GPER, at most 0.2. Under GHRT stands at most 0.2; under LLTM, at most 0.2. To RQDY belongs 0.421; to GGKR, at most 0.2. Take EFTE: the “one-hybrid fitness for binding parS DNA” value is at most 0.2. Consider LQRY, for which the “one-hybrid fitness for binding parS DNA” value was at most 0.2.

Take VDSC: the “one-hybrid fitness for binding parS DNA” value was at most 0.2. To AKMG belongs at most 0.2; to GHPW, at most 0.2; to YMRE, at most 0.2. Consider YTSE, for which the “one-hybrid fitness for binding parS DNA” value was at most 0.2.

LGIY: the “one-hybrid fitness for binding parS DNA” value was at most 0.2. On to GYLL, for which the “one-hybrid fitness for binding parS DNA” value was at most 0.2. To THDV belongs at most 0.2. Under NYGF stands at most 0.2; under WTGC, at most 0.2; under LGND, at most 0.2. On to SPFF, for which the “one-hybrid fitness for binding parS DNA” value was at most 0.2.

For HMMD, the “one-hybrid fitness for binding parS DNA” value is at most 0.2.

Regarding RFKG, the “one-hybrid fitness for binding parS DNA” value came out at 0.988. As to CWIY, the “one-hybrid fitness for binding parS DNA” value was at most 0.2.

KLWR: the “one-hybrid fitness for binding parS DNA” value is at most 0.2. Under QAMT stands at most 0.2; under CSLS, at most 0.2.

In the case of GDRI, the “one-hybrid fitness for binding parS DNA” value is at most 0.2. To YSDY belongs at most 0.2; to LWRV, at most 0.2; to MALL, at most 0.2. Take FGHV: the “one-hybrid fitness for binding parS DNA” value is at most 0.2.

Take YHHV: the “one-hybrid fitness for binding parS DNA” value is at most 0.2. To PLTG belongs at most 0.2; to ENPR, at most 0.2. To KVFK belongs at most 0.2; to VNLW, at most 0.2; to QRDN, at most 0.2. To GDIR belongs at most 0.2; to EWTC, at most 0.2; to WMNR, at most 0.2.

Values taken from a collection of fitness landscapes (doi:10.1016/j.celrep.2020.107928).
